Potency data for 91 compounds are collected here from PubChem BioAssay AID360 (National Center for Advancing Translational Sciences (NCATS), 2006).

Hit rate of the full screen: of about 48,000 compounds, about 550 (1.1%) were called active. Not shown: some 4% with an inconclusive outcome. No stated cut-off is given here; in the data, active means potency below about 15 µM; inconclusive means mostly about 16 µM to 33 µM; inactive means weaker than that. Some of the results follow. A value given as a limit tells only on which side of the number the result lay.
Potency means the concentration at half of the fitted maximal effect.

UniProt P04062, sequence (P04062 whole entry, looked up): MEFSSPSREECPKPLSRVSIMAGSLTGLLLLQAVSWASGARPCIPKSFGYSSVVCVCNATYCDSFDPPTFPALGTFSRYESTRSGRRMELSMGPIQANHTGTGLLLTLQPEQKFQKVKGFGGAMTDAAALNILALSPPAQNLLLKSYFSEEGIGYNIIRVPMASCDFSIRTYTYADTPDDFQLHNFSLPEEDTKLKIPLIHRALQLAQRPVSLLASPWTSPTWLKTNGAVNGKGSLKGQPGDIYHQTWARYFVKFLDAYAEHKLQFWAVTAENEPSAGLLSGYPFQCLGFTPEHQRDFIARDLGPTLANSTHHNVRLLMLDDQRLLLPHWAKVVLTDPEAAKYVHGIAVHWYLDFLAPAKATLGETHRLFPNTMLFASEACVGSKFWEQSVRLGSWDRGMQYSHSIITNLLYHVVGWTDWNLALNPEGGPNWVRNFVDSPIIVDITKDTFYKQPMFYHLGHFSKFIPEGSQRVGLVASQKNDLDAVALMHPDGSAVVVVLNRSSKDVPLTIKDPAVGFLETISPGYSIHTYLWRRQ

The target of the assay is Lysosomal acid glucosylceramidase (Homo sapiens) (UniProt P04062). As to the kind of experiment: Glucocerebrosidase.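 Further: the screen sought inhibitors.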 Particulars: purified enzyme, resorufin glucoside fluorescence (screen aimed at inhibitors), 20 min. A digest of the protocol:
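Compounds titrated against 0.2 nM normal enzyme, 30 uM resorufin beta-D-glucopyranoside substrate, citrate/phosphate buffer with taurocholate and tween-20, pH 5.9. Reaction ran 20 min at room temperature; fluorescence (Ex 548/Em 600) gave AC50.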
For the compound `CCOC(=O)C1CCCN(C(=O)CCn2nc(-c3ccccc3)ccc2=O)C1` (stereo unspecified), the Potency is inactive: > 76.9 µM.

Take `O=S(=O)(Nc1cc(Cl)ccc1N1CCCCC1)c1cccs1`: the Potency is active: 15.4 µM.

For `O=C(CSc1nnc(Cc2cc(=O)[nH]c(=O)[nH]2)n1-c1ccccc1)N1CCCC1`, the Potency is inactive: > 76.9 µM.

For `COC(=O)CSc1nnc2n1C(C)(C)Cc1ccccc1-2`, the Potency was inactive: > 76.9 µM.

In the case of `O=S(=O)(c1cccs1)N1CCN(C/C=C/c2ccccc2)CC1`, the Potency is inactive: > 76.9 µM.

`O=C(Nc1nnc(COc2ccc(Cl)cc2)s1)c1cccs1`: the Potency was inactive: > 76.9 µM.

Consider `O=C(Cn1c(CC(=O)N2CCOCC2)nc2ccccc21)Nc1ccc2c(c1)OC(F)(F)O2`, for which the Potency was inactive: > 76.9 µM.

Regarding `CCCCNC(=O)Nc1ccon1`, the Potency was inactive: > 76.9 µM.

Regarding `COc1cc(NS(=O)(=O)c2ccc(NC(=O)COc3ccccc3C)cc2)nc(OC)n1`, the Potency was inactive: > 76.9 µM.

Consider `O=C(COc1ccccc1)Nc1ncc2c(n1)CCCC2=O`, for which the Potency is inactive: > 76.9 µM.

`CC1CN(C(=O)CN2C(=O)c3ccccc3S2(=O)=O)CC(C)O1` (stereo unspecified): the Potency was inactive: > 76.9 µM.

As to `Cc1cc(Cl)ccc1OCC(=O)OC(C)C(=O)NC(N)=O` (stereo unspecified), the Potency was inactive: > 76.9 µM.

On to `CCn1c(CCNC(=O)c2cccs2)nnc1SCC(=O)c1ccc(OC)cc1`, for which the Potency was inactive: > 76.9 µM.

Turning to `Cc1csc(SCC(=O)O)n1`, the Potency is inactive: > 76.9 µM.

In the case of `COc1ccc(CCN2C(=O)c3cccnc3C2=O)cc1OC`, the Potency is inactive: > 76.9 µM.

As to `CC1=Nn2c(nc(-c3ccccc3)c2-c2ccccc2)N(CC(N)=O)C(=O)C1`, the Potency is inactive: > 76.9 µM.

Regarding `Cc1cc(NC(=O)CCOc2ccccc2)no1`, the Potency is inactive: > 76.9 µM.

Consider `CCN(CC)C(=O)c1ccc(C)c(Br)c1`, for which the Potency is inactive: > 76.9 µM.

Regarding `Cc1c(N2C(=O)c3ccccc3C2=O)c(=O)n(-c2ccccc2)n1C`, the Potency was inactive: > 76.9 µM.

Turning to `N#Cc1cnn(-c2ccccc2)c1N`, the Potency is inactive: > 76.9 µM.

Turning to `CCN(CC)c1ccc(NC(=O)Nc2ccc(C(C)=O)cc2)cc1`, the Potency was inactive: > 76.9 µM.

As for `Cc1ccc(C2SCC(=O)N2Cc2cn3ccsc3n2)o1` (stereo unspecified), the Potency is inactive: > 76.9 µM.

For the compound `CCOC(=O)N1CCC(NC(=O)Cn2ncn3c(cc4sc(CC)cc43)c2=O)CC1`, the Potency was inactive: > 76.9 µM.

In the case of `CN1CCN(c2ccc(NC(=O)Cc3ccccc3)cc2)CC1`, the Potency was inactive: > 76.9 µM.

On to `CCOC(=O)c1sc(=N)n(-c2ccc(OC)cc2)c1C`, for which the Potency is inactive: > 76.9 µM.

Take `CC(=O)c1oc2ccccc2c1NC(=O)COC(=O)c1ccc(-n2nc(C)cc2C)cc1`: the Potency is inactive: > 76.9 µM.

In the case of `CCn1c(SCC(=O)NCCc2ccc(F)cc2)nnc1-c1cccs1`, the Potency was inactive: > 76.9 µM.

In the case of `COC(=O)Nc1ccc(S(=O)(=O)N2CCCc3ccccc32)cc1`, the Potency is inactive: > 76.9 µM.

`COc1ccc(-c2cc(=O)oc3c(C)c(OCc4nn[nH]n4)ccc23)cc1`: the Potency is inactive: > 76.9 µM.

Consider `CNc1oc(Cc2ccccc2)nc1S(=O)(=O)c1ccc(Cl)cc1`, for which the Potency was inactive: > 76.9 µM.

Turning to `COc1cccc(C2=NOC(C(=O)Nc3cccnc3)C2)c1` (stereo unspecified), the Potency is inactive: > 76.9 µM.

As to `Cc1cc(N)ccc1-n1c(C)ccc1C`, the Potency was inactive: > 76.9 µM.

Take `CC(=O)OCc1cc(=O)n(C)c(=O)n1C`: the Potency is inactive: > 76.9 µM.

Consider `COCCCNC(=O)CCn1c(=O)c2ccccc2n(CC(=O)Nc2c(C)cccc2C)c1=O`, for which the Potency was inactive: > 76.9 µM.

In the case of `Cn1c(SCC(=O)N2CCCc3ccccc32)nnc1-c1ccco1`, the Potency is inactive: > 76.9 µM.

On to `Cc1ccc(S(=O)(=O)NC(CC(=O)NCc2ccco2)c2ccco2)cc1` (stereo unspecified), for which the Potency is inactive: > 76.9 µM.

Consider `O=C(CN1C(=O)C2CC=CCC2C1=O)OCCN1C(=O)c2ccccc2C1=O` (stereo unspecified), for which the Potency is inactive: > 76.9 µM.

For `Cc1cccc(NC(=O)Nc2cccc(C)n2)n1`, the Potency is inactive: > 76.9 µM.

As for `COc1ccc(-c2nc(-c3ccc(NC(=O)c4ccc(Br)o4)cc3)no2)cc1OC`, the Potency is inactive: > 76.9 µM.

`COc1ccc(N(CC(=O)O)S(=O)(=O)c2cccnc2)cc1`: the Potency is inactive: > 76.9 µM.

Regarding `O=C(NCc1nnc(SC/C=C/c2ccccc2)o1)c1ccco1`, the Potency was inactive: > 76.9 µM.

For `Cc1ccccc1-n1c(=O)c2ccccc2n2c(=O)[nH]nc12`, the Potency is inactive: > 76.9 µM.

`COc1ccc(S(=O)(=O)N2CCC(C(=O)N3CCCCCC3)CC2)cc1`: the Potency was inactive: > 76.9 µM.

In the case of `O=C(O)c1ccc2cccc(Cl)c2c1O`, the Potency was inactive: > 76.9 µM.

With `O=C(c1ccc(=O)oc1)N1CCCc2ccccc21`, the Potency was inactive: > 76.9 µM.

Regarding `CCN(CC)c1ccc(NC(=O)Nc2cccc(C(C)=O)c2)cc1`, the Potency was inactive: > 76.9 µM.

`CCCN1Cc2cccc(C(=O)Nc3ccc4c(c3)OCO4)c2C1=O`: the Potency is inactive: > 76.9 µM.

For `COc1cc(C(=O)Nc2cnc(NC(=O)C(C)C)cc2C)cc(OC)c1OC`, the Potency is inactive: > 76.9 µM.

Turning to `Cc1ccc(C)n1-c1ccncc1`, the Potency is inactive: > 76.9 µM.

Take `O=c1oc2ccccc2n1CCn1c2ccccc2c2nc3ccccc3nc21`: the Potency was inactive: > 76.9 µM.

As to `Cc1ccc(SCc2cc(=O)[nH]c(N3CCOCC3)n2)cc1`, the Potency was inactive: > 76.9 µM.

In the case of `COc1cccc(NC(=O)C2C3C=CC4(O3)C2C(=O)N(C2CC2)C4C(=O)NC2CCCCC2C)c1` (stereo unspecified), the Potency was inactive: > 76.9 µM.

As to `CCc1nn(CC(=O)NCCCN(Cc2ccccc2)C(C)C)c(=O)c2cc3sccc3n12`, the Potency is inactive: > 76.9 µM.

`CC(=O)NCCOc1nc(N(C)C)nc(N(C)C)n1`: the Potency was inactive: > 76.9 µM.

Consider `O=C(O)c1cccc(Cn2cc(Cl)cn2)c1`, for which the Potency is inactive: > 76.9 µM.

Take `C=CCNC(=O)C(C)Sc1ccc(Cl)cc1` (stereo unspecified): the Potency is inactive: > 76.9 µM.

`CCCCC(=O)Nc1ccc(N2CCN(S(C)(=O)=O)CC2)cc1`: the Potency is inactive: > 76.9 µM.

Consider `S=c1[nH]nc(Cc2ccccc2)n1-c1ccccc1`, for which the Potency is inactive: > 76.9 µM.

As for `O=C(NCc1cccs1)C(Cc1ccccc1)NS(=O)(=O)c1cccs1` (stereo unspecified), the Potency was inactive: > 76.9 µM.

Take `COc1cc(C(Nc2ccc3c(c2)OCO3)C(=O)NC2CCCCC2)cc(OC)c1OC` (stereo unspecified): the Potency is inactive: > 76.9 µM.

On to `CC(C)CCNc1ncnc2c1nnn2Cc1ccccc1Cl`, for which the Potency is inactive: > 76.9 µM.

On to `COCCn1c(=O)[nH]c2cc(C(=O)NCC3CCCO3)ccc2c1=O` (stereo unspecified), for which the Potency entry was “inactive”.

As for `Cc1ccc2c(c1)cc(CN(Cc1ccc3c(c1)OCO3)C(=O)c1cnccn1)c1nnnn12`, the Potency was inactive: > 76.9 µM.

Regarding `COc1cc2c(cc1OC)CN(S(=O)(=O)c1ccc3c(c1)OCCO3)CC2`, the Potency was inactive: > 76.9 µM.

Regarding `CCCSc1nc2c(c(=O)[nH]c(=O)n2C)n1C`, the Potency was inactive: > 76.9 µM.

For the compound `O=C(CSc1nc(O)c(Cc2ccccc2F)c(=O)[nH]1)N1CCCCCC1`, the Potency is inactive: > 76.9 µM.

`Cc1cc(S(=O)(=O)Nc2ccccc2C)ccc1F`: the Potency is inactive: > 76.9 µM.

Take `C=CCn1cc(Cl)c(=O)n(CC=C)c1=O`: the Potency was inactive: > 76.9 µM.

In the case of `CCOc1ccc(OCC)c(C2C(C#N)=C(N)N(c3cccnc3)C3=C2C(=O)CC(C)(C)C3)c1` (stereo unspecified), the Potency is inactive: > 76.9 µM.

Consider `Cc1nn(-c2ccccc2)c(C)c1C(=O)OCC(=O)N1CCN(S(=O)(=O)c2ccccc2)CC1`, for which the Potency was inactive: > 76.9 µM.

For the compound `O=C(c1coc2ccc(O)c(CN3CCOCC3)c12)C1CC1`, the Potency was inactive: > 76.9 µM.

As for `COc1cc2nc(SCC(N)=O)n(CCC3=CCCCC3)c(=O)c2cc1OC`, the Potency was inactive: > 76.9 µM.

In the case of `CCOC(=O)C1CCN(S(=O)(=O)c2ccc(Br)c(OCC)c2)CC1`, the Potency was inactive: > 76.9 µM.

In the case of `C=CCOC(=O)N1CCN(c2cccc(C(F)(F)F)c2)CC1`, the Potency is inactive: > 76.9 µM.

Take `CN1CCN(C(=O)c2ccc(-c3nn(C)c(=O)c4ccccc34)cc2)CC1`: the Potency is inactive: > 76.9 µM.

Turning to `Cc1cccc2cc(CN(Cc3ccco3)C(=O)N3CCCC3)c(=O)[nH]c12`, the Potency is inactive: > 76.9 µM.

For `Cc1cccc(C)c1N1C(=O)CC(N(O)c2ccccc2)C1=O` (stereo unspecified), the Potency was inactive: > 76.9 µM.

As for `CCOc1ccc(OCC)c(NC(=O)CSc2nnc(-c3cccnc3)o2)c1`, the Potency was inactive: > 76.9 µM.

For `Cc1nc2n(n1)C(c1ccccc1)C1=C(CC(c3ccco3)CC1=O)N2` (stereo unspecified), the Potency result was “inactive”.

In the case of `COc1cc(C(=O)CSc2nncn2C)cc(OC)c1OC`, the Potency is inactive: > 76.9 µM.

For `Cn1c2ccccc2c2cc(C(=O)OCC(=O)N3CC(=O)Nc4ccccc43)sc21`, the Potency is inactive: > 76.9 µM.

Turning to `Cc1ccnc(SCCn2c(N3CCOCC3)nc3c2c(=O)n(C)c(=O)n3C)n1`, the Potency is inactive: > 76.9 µM.

As to `Cc1cc(C)nc(-n2nc(C)c3c(C(F)F)cc(C)nc32)n1`, the Potency was inactive: > 76.9 µM.

In the case of `O=C(CSc1nnc(CNC(=O)c2ccco2)o1)c1ccccc1`, the Potency was inactive: > 76.9 µM.

Regarding `COc1cc([C@H]2[C@@H]3CCCC[C@]3(O)CCN2CC(=O)Nc2ccc(C)cc2)ccc1O`, the Potency is inactive: > 76.9 µM.

Consider `CC1(C)SC2c3ccccc3C(=O)N2[C@@H]1C(=O)NCCCN1CCOCC1` (stereo partly specified), for which the Potency is inactive: > 76.9 µM.

Take `COC(=O)[C@H](C)NC(=O)Nc1ccc(C)c(C)c1`: the Potency was inactive: > 76.9 µM.

Take `CCCCn1c(NC(=O)c2ccc(F)cc2)c(C#N)c2nc3ccccc3nc21`: the Potency is inactive: > 76.9 µM.

`COc1ccc(-c2nn(C)c3sc(C(=O)N4CCOCC4)cc23)cc1OC`: the Potency is inactive: > 76.9 µM.

On to `COc1ccc(OCC(=O)Nc2cccc(NC(=O)COc3ccc(OC)cc3)n2)cc1`, for which the Potency was inactive: > 76.9 µM.

Take `O=C(OCc1ccccc1)Oc1cncc(C(=O)O)c1`: the Potency was inactive: > 76.9 µM.
